Measured values published in patent US4372953A, “Tetrazole derivatives, and anti-ulcer composition containing the same” (Otsuka Pharmaceutical Company, Limited, priority 1980, dated 1983).
For some assays here: The name of at least one read-out is uncertain. At least one compound was matched to its structure with a doubt left.

Columns and labels:
Assay type in all cases: in vivo, male Wistar rats
gastric juice secretion = assay: Shay rat pylorus ligation method (gastric juice secretion-inhibiting activity); settings: 100 mg/kg, 4 hours after ligation
Method: The pharmacological activities of the compounds (1) were tested by a Shay rat pylorus ligation method (cf. H. Shay et al: Gastroenterol., Vol. 5, page 43, 1945) which is the most popular method for testing of gastric juice secretion-inhibiting activity. The test was carried out by using male Wistar rats, weighing about 170 g and fasting for 24 hours.
Test compounds were administered 30 minutes before the pylorus ligation in a dose of 100 mg/kg in subcutaneous route in case of test compounds 37, 38, 50, 51 and 52, in a dose of 200 mg/kg in subcutaneous route in case of test compounds 105 and 106 and in dose of 100 mg/kg in duodenal route in case of other test compounds, and the volume, total acidity and pepsin activity of the gastric juice were measured 4 hours after the ligation. As a control, a saline solution was administered instead of the test compound. The inhibitory ratio (%) of the test compounds were calculated when the inhibitory activities of the control were counted as zero (0).
(§1) In the table, the inhibitory ratio (%) was evaluated as follows: […]

stress ulcer = assay: Stress ulcer (restraint and water immersion); settings: oral
Method: After male Wistar rats weighing about 170 g was fasted for 24 hours, the rats were restrained in a stress cage and dipped in water bath at 23° C. till chest of the animals. After 7 hours, the rats were killed and the stomach was isolated. Into the isolated stomach 10% formalin (8 ml) was poured and settled. The stomach was cut open at the greater curvature, and the length of each ulcer on the membrane was measured. Sum of the length of all ulcers was shown as ulcer index (UI). The test compound was orally administered to the rats before restraint in a stress cage in a dose of 300 mg/kg in the form of 0.5% CMC suspension in case of test compounds 3, 4, 6, 15 and 27 and in a concentration of 1×10^-3 mole in case of other test compounds. As a control, only the solvent (CMC solution) was administered likewise. The inhibitory ratio (%) of stress ulcer of the test compounds was calculated by the following equation: [formula]
as §1

[1] = system: indomethacin-induced ulcer; assay: Indomethacin-induced ulcer; settings: oral, 100 mg/kg, 30 minutes before indomethacin 20 mg/kg s.c.
Method: After male Wistar rats weighing about 160 g was fasted for 24 hours, indomethacin was subcutaneously administered to the rats in a dose of 20 mg/kg in the form of a suspension in a mixture of 0.5% CMC and a small amount of Tween 80 (i.e. polyoxyethylene sorbitan monooleate). After 5 hours, the rats were killed and the stomach was isolated. Into the isolated stomach 10% formalin (8 ml) was poured and settled. The stomach was cut open at the greater curvature, and the length of each ulcer on the membrane was measured, based on which results the inhibitory ratio of the indomethacin-induced ulcer of the test compounds was calculated in the same manner as in Pharmacological Test 2. The test compound was orally administered to the rats in a dose of 100 mg/kg in the form of 0.5% CMC suspension 30 minutes before the administration of indomethacin.
as §1

[2] = duodenal route, star-marked compounds

Cn1nnnc1[S+]([O-])CCCCSc1ccccn1 (centres unmarked) [compound 45]
Inhibitory ratio, volume of gastric juice (gastric juice secretion; duodenal route): + (10 to less than 50%)

COc1ccc(CSc2nnnn2C)cc1 [compound 104]
Inhibitory ratio, volume of gastric juice (gastric juice secretion; duodenal route): ++ (more than 50%) | Inhibitory ratio of stress ulcer (stress ulcer; concentration of 1×10^-3 mole): ++ (more than 60%)

Cn1nnnc1SCCCC(=O)c1ccc[nH]1 [compound 73]
Inhibitory ratio, volume of gastric juice (gastric juice secretion; duodenal route): ++ (more than 50%)

Cn1nnnc1SCCCCSc1nnnn1C [compound 1]
Inhibitory ratio, pepsin activity (gastric juice secretion; [2]): + (30 to less than 60%) | Inhibitory ratio, total acidity (gastric juice secretion; [2]): ++ (more than 60%) | Inhibitory ratio, volume of gastric juice (gastric juice secretion; [2]): ++ (more than 60%)

CCSCCCSc1nnnn1C1CCCCC1 [compound 30]
Inhibitory ratio of stress ulcer (stress ulcer; concentration of 1×10^-3 mole): + +

CCN(CCCSc1nnnn1C)C(=O)C1CCCC1 [compound 92]
Inhibitory ratio of stress ulcer (stress ulcer; concentration of 1×10^-3 mole): ++ (more than 60%)

COc1ccc(C(=O)CCCSc2nnnn2C)cc1 [compound 63]
Inhibitory ratio of stress ulcer (stress ulcer; concentration of 1×10^-3 mole): ++ (more than 60%) | Inhibitory ratio of indomethacin-induced ulcer [1]: ++ (more than 60%)

Cn1nnnc1SCC(=O)c1ccccc1 [compound 61]
Inhibitory ratio, pepsin activity (gastric juice secretion; duodenal route): - | Inhibitory ratio, total acidity (gastric juice secretion; duodenal route): + (10 to less than 50%) | Inhibitory ratio, volume of gastric juice (gastric juice secretion; duodenal route): ++ (more than 50%) | Inhibitory ratio of indomethacin-induced ulcer [1]: + (30 to less than 60%)

Cc1nnc(SC(C)CC[S+]([O-])c2nnnn2C)o1 (centres unmarked) [compound 43]
Inhibitory ratio, volume of gastric juice (gastric juice secretion; duodenal route): + (10 to less than 50%) | Inhibitory ratio of stress ulcer (stress ulcer; concentration of 1×10^-3 mole): ++ (more than 60%)

CC(CC[S+]([O-])c1nnnn1C)Sc1nnnn1C (centres unmarked) [compound 49]
Inhibitory ratio, volume of gastric juice (gastric juice secretion; duodenal route): + (10 to less than 50%)

CCN(C(=O)CCCn1nnnc1C)C1CCCCC1O (centres unmarked) [compound 116]
Inhibitory ratio of stress ulcer (stress ulcer; concentration of 1×10^-3 mole): + (30 to less than 60%)

Cn1nnnc1SCCCSc1nnc(N)s1 [compound 12]
Inhibitory ratio, volume of gastric juice (gastric juice secretion; duodenal route): + (10 to less than 50%) | Inhibitory ratio of stress ulcer (stress ulcer; concentration of 1×10^-3 mole): ++ (more than 60%)

CC(CCSc1nnnn1C)Sc1nnnn1C (centres unmarked) [compound 6]
Inhibitory ratio, pepsin activity (gastric juice secretion; [2]): - | Inhibitory ratio, total acidity (gastric juice secretion; [2]): ++ (more than 60%) | Inhibitory ratio, volume of gastric juice (gastric juice secretion; [2]): ++ (more than 60%) | Inhibitory ratio of stress ulcer (stress ulcer; 300 mg/kg, 0.5% CMC suspension): ++ (more than 60%) | Inhibitory ratio of indomethacin-induced ulcer [1]: ++ (more than 60%)

CCC(=O)N(CCCSc1nnnn1C)Cc1ccccc1 [compound 94]
Inhibitory ratio, volume of gastric juice (gastric juice secretion; duodenal route): + (10 to less than 50%)

CC(=O)NCCCSc1nnnn1C [compound 86]
Inhibitory ratio, volume of gastric juice (gastric juice secretion; duodenal route): + (10 to less than 50%)

O=C(CCCSc1nnnn1-c1ccccc1)c1ccccc1 [compound 51]
Inhibitory ratio, pepsin activity (gastric juice secretion; subcutaneous route): ++ (more than 50%) | Inhibitory ratio, total acidity (gastric juice secretion; subcutaneous route): + (10 to less than 50%) | Inhibitory ratio, volume of gastric juice (gastric juice secretion; subcutaneous route): + (10 to less than 50%)

CCCCNC(=O)CCCn1nnnc1C [compound 108]
Inhibitory ratio, volume of gastric juice (gastric juice secretion; duodenal route): + (10 to less than 50%)

Cn1nnnc1SCc1ccccn1 [compound 98]
Inhibitory ratio of stress ulcer (stress ulcer; concentration of 1×10^-3 mole): ++ (more than 60%)

Cc1cc(SCCCSc2nnnn2C)nc(N)n1 [compound 26]
Inhibitory ratio of stress ulcer (stress ulcer; concentration of 1×10^-3 mole): ++ (more than 60%)

CC(=O)N(C)CCCSc1nnnn1C [compound 83]
Inhibitory ratio, pepsin activity (gastric juice secretion; duodenal route): + (10 to less than 50%) | Inhibitory ratio, total acidity (gastric juice secretion; duodenal route): ++ (more than 50%) | Inhibitory ratio, volume of gastric juice (gastric juice secretion; duodenal route): ++ (more than 50%)

CCc1ccc(C(=O)CCCSc2nnnn2C)cc1 [compound 69]
Inhibitory ratio of indomethacin-induced ulcer [1]: ++ (more than 60%)

CCN(CCCSc1nnnn1C)C(=O)C1CCCCC1 [compound 90]
Inhibitory ratio, volume of gastric juice (gastric juice secretion; duodenal route): ++ (more than 50%) | Inhibitory ratio of stress ulcer (stress ulcer; concentration of 1×10^-3 mole): ++ (more than 60%)

Cn1nnnc1SCCCC(=O)c1ccco1 [compound 55]
Inhibitory ratio of indomethacin-induced ulcer [1]: ++ (more than 60%)

Cc1csc(SCCCSc2nnnn2C)n1 [compound 24]
Inhibitory ratio, volume of gastric juice (gastric juice secretion; duodenal route): ++ (more than 50%) | Inhibitory ratio of stress ulcer (stress ulcer; concentration of 1×10^-3 mole): ++ (more than 60%)

Cn1nnnc1SCCCSc1ccncc1 [compound 25]
Inhibitory ratio, volume of gastric juice (gastric juice secretion; duodenal route): ++ (more than 50%)

Cn1nnnc1SCCCC(=O)c1ccc(Cl)s1 [compound 75]
Inhibitory ratio of stress ulcer (stress ulcer; concentration of 1×10^-3 mole): ++ (more than 60%)

Cn1nnnc1SCCCSCc1ccc(Cl)cc1 [compound 41]
Inhibitory ratio of stress ulcer (stress ulcer; concentration of 1×10^-3 mole): ++ (more than 60%)

CCCCSCCCSc1nnnn1C [compound 8]
Inhibitory ratio, volume of gastric juice (gastric juice secretion; duodenal route): ++ (more than 50%) | Inhibitory ratio of stress ulcer (stress ulcer; concentration of 1×10^-3 mole): ++ (more than 60%)

O=C(CCCSc1nnnn1-c1ccccc1)C1CCCCC1 [compound 77]
Inhibitory ratio, volume of gastric juice (gastric juice secretion; duodenal route): + (10 to less than 50%)

CNc1nnnn1CCCSc1nnnn1C [compound 100]
Inhibitory ratio of stress ulcer (stress ulcer; concentration of 1×10^-3 mole): ++ (more than 60%)

CNC(=S)NCCCSc1nnnn1C [compound 99]
Inhibitory ratio, volume of gastric juice (gastric juice secretion; duodenal route): ++ (more than 50%)

CC(=O)CCCSc1nnnn1C [compound 59]
Inhibitory ratio, pepsin activity (gastric juice secretion; duodenal route): + (10 to less than 50%) | Inhibitory ratio, total acidity (gastric juice secretion; duodenal route): ++ (more than 50%) | Inhibitory ratio, volume of gastric juice (gastric juice secretion; duodenal route): ++ (more than 50%) | Inhibitory ratio of stress ulcer (stress ulcer; concentration of 1×10^-3 mole): + (30 to less than 60%)

CN=C(NN)NCCCSc1nnnn1C.I [compound 102]
Inhibitory ratio, volume of gastric juice (gastric juice secretion; duodenal route): + (10 to less than 50%)

Cn1nnnc1SCCCSCc1ccco1 [Test compound 21, 1-Methyl-5-[3-(2-furyl)methylthiopropyl]thio-1,2,3,4-tetrazole]
Inhibitory ratio of stress ulcer (stress ulcer; concentration of 1×10^-3 mole): ++ (more than 60%) | Inhibitory ratio of stress ulcer (stress ulcer; concentration of 1×10^-3 mole, listed as 56): + (30 to less than 60%)

Cn1nnnc1SCCCC(=O)C1CCCC1 [compound 65]
Inhibitory ratio, volume of gastric juice (gastric juice secretion; duodenal route): + (10 to less than 50%)

COC(=O)CCCn1nnnc1C [compound 110]
Inhibitory ratio, volume of gastric juice (gastric juice secretion; duodenal route): + (10 to less than 50%)

Cn1nnnc1SCCCSc1ncccc1O [compound 14]
Inhibitory ratio of stress ulcer (stress ulcer; concentration of 1×10^-3 mole): ++ (more than 60%)

Cn1nnnc1SCCCC(=O)C1CCCCC1 [Test compound 66, 1-Methyl-5-(3-cyclohexylcarbonylpropyl)thio-1,2,3,4-tetrazole]
Inhibitory ratio, volume of gastric juice (gastric juice secretion; duodenal route): + (10 to less than 50%) | Inhibitory ratio, volume of gastric juice (gastric juice secretion; duodenal route, listed as 72): ++ (more than 50%) | Inhibitory ratio, volume of gastric juice (gastric juice secretion; duodenal route, listed as 78): + (10 to less than 50%)

Cn1nnnc1SCCCC(=O)c1ccccc1 [compound 53]
Inhibitory ratio, pepsin activity (gastric juice secretion; duodenal route): + (10 to less than 50%) | Inhibitory ratio, total acidity (gastric juice secretion; duodenal route): ++ (more than 50%) | Inhibitory ratio, volume of gastric juice (gastric juice secretion; duodenal route): ++ (more than 50%)

Cn1nnnc1SCCCSc1nnnn1-c1ccccc1 [compound 39]
Inhibitory ratio, volume of gastric juice (gastric juice secretion; duodenal route): + (10 to less than 50%)
